The values that follow come from the RNAGym collection of RNA variant scans (doi:10.7554/elife.90254).

The source gives no read counts; variants with many changes may rest on few reads.

B1: LINE1-mini (parent)
chain: GGCAGAGCUCAACACAGCGUGGCAAAGUGGCUGUGGCUAGACUGCC

The variants in the data set derive from B1. Kind of data set: self-cleavage, relative activity (ratio to wild type); higher = more cleavage; in vitro, sequencing; the parent is a self-cleaving ribozyme.
For A16C C23A C42G, the self-cleavage amounted to 0.04. Regarding A16C A26C G40A, the self-cleavage is 0.01.

Regarding C15U G29U G35A, the self-cleavage amounted to 0.05. Take C15U C37G U38C: the self-cleavage came to 0.02. As for C15U G29A C42A, the self-cleavage came to 0.02. C15U G17U U34A C42U: the self-cleavage amounted to 0.19. Turning to C15U U20C G44A, the self-cleavage was 0.02. A16C A25U C37U: the self-cleavage turned out to be 0.15. As to C15U U34G C42U G44C, the self-cleavage turned out to be 0.03. In the case of C15U G33C C37U C46U it was 0.02; in that of C15U G29C C31A U34G, 0.09. For the variant A16C C18G G30C C37A, the self-cleavage was found to be 0.04.

C15U G21U A24C C31G: the self-cleavage turned out to be 0.06. As for C15U C23A C46A, the self-cleavage is 2.44. In the case of C15U C37G G44U C45A it was 0.06.

Take C15U G27C G29A: the self-cleavage turned out to be 0.26.

In the case of C15U G21A A25G U34A, the self-cleavage stood at 0.06. On to A16C A25G U28A G29C C31A A41U, for which the self-cleavage is 0.03.

For C15U U38G A39C, the self-cleavage stood at 0.02. Consider C15U G19U G29U C37A, for which the self-cleavage was 0.04. For the variant C15U C37U G44A, the self-cleavage came to 0.12. As for C15U C18U U20C G29A, the self-cleavage was 0.07. Regarding C15U C23U C37U, the self-cleavage turned out to be 0.08. To C15U U34G G35C belongs 0.1. To C15U U34G G35U belongs 0.06. For C15U G17A C18A C37G U38C G44A, the self-cleavage amounted to 0.04. To C15U G29U G44A belongs 0.3; to C15U G17U G30A U34A G35C, 0.01; to C15U C31U U43A, 0.04. For the variant C15U G17A U28A C45G, the self-cleavage turned out to be 0.04. With C15U G17U G22A U28G U38C, the self-cleavage is 0.02.

As for C15U G17A G19U, the self-cleavage was determined as 0.03. With A16C A26G G33A C37G G44U, the self-cleavage was 0.03. In the case of C15U C23U U38A A39G, the self-cleavage stood at 0.03.

On to C15U C31U U38A C42U, for which the self-cleavage was 0.22. A16C C31G G33A C37A: the self-cleavage amounted to 0.06.

As to C15U G19U U20G, the self-cleavage was 0.28. With C15U G33A A39G A41G, the self-cleavage was found to be 0.01. For the variant C15U U32G G35C, the self-cleavage came out at 0.07. Turning to C15U C23A G29U G40C, the self-cleavage stood at 0.15. For the variant C15U U32C G36C A41G G44C, the self-cleavage was found to be 0.03. Consider C15U U20A A25G C37G C42A, for which the self-cleavage worked out at 1.31. Turning to C15U C23U G29C A41C, the self-cleavage worked out at 0.02. In the case of A16C C18G G29A it was 0.22; in that of C15U C31A G35C, 0.06; in that of C15U G22C U32A, 0.02. Consider C15U U20C A39G C42G U43G, for which the self-cleavage is 0.02.

Regarding A16C A24C G29U A39C G44A, the self-cleavage is 0.05. In the case of A16C A24G C31U A39C A41U, the self-cleavage amounted to 0.03.

Regarding A16C A25U G35A G40U, the self-cleavage came out at 0.05.

Consider C15U U28C A39C, for which the self-cleavage stood at 0.04. On to C15U G19C U32A, for which the self-cleavage turned out to be 0.05.

Turning to C15U G29C G40A, the self-cleavage stood at 0.34. As for A16C A24U U38G C45A, the self-cleavage was 0.05. For C15U U20G C23A, the self-cleavage came out at 0.69. For C15U G27U G35A C37A, the self-cleavage stood at 0.32. Consider C15U G19C G33U C46A, for which the self-cleavage was 0.01. For the variant C15U U20C C23A A24U G36A U38A C45A, the self-cleavage came out at 0.08. On to C15U C31G U34A, for which the self-cleavage worked out at 0.03. A16C A26U G29U G35C A41C: the self-cleavage amounted to 0.04. For the variant C15U C18U U34C G36C, the self-cleavage amounted to 0.02. Take C15U G19C G36A C37A C46U: the self-cleavage came to 0.1. As to C15U G22A G35A, the self-cleavage is 0.07. A16C A26U G35A: the self-cleavage is 0.01. As for A16C A26U G35C, the self-cleavage was 0.04. Regarding C15U C31A U38A C42G, the self-cleavage amounted to 0.03.

Regarding C15U G22A C37U, the self-cleavage amounted to 0.04. On to C15U G33A C37U U38A, for which the self-cleavage is 0.04. As to C15U G22C G35C A41G, the self-cleavage stood at 0.19. For C15U G22U U32A, the self-cleavage was 0.01. In the case of C15U U20C C23U C45G, the self-cleavage was 0.04. In the case of C15U G21C A41U, the self-cleavage is 0.2. For the variant A16C C18A G22U U32C, the self-cleavage worked out at 0.03.

As to A16C A25C C31U, the self-cleavage was 0.02. In the case of A16C C18A G19A U20G G27U U32C A41G it was 0.01.

C15U G30A C37G: the self-cleavage was found to be 0.01. In the case of A16C A25G C37U G44C C46U, the self-cleavage worked out at 0.04. As to A16C A24C G33U G40A, the self-cleavage came out at 0.05. C15U U34A U38G: the self-cleavage came to 0.09. To C15U G19U G22A G29A A39C belongs 0.08; to C15U G22C U28G G40A, 0.1; to A16C C18U A41U, 0.03. Regarding C15U U20G C31A C37A, the self-cleavage worked out at 0.04. Regarding C15U G29C C42A, the self-cleavage came to 0.12. Regarding C15U G22A G29U C31U C46A, the self-cleavage is 0.03.

For C15U G22C C37G U38G, the self-cleavage amounted to 0.04. C15U G40C C42U G44A C46G: the self-cleavage is 0.02. In the case of C15U G19U A25G G35C C42A it was 0.01; in that of C15U G21U C23A A26C C31A G36A A39G, 0.06; in that of A16C C23A A39G, 0.14. To C15U G17A G35C belongs 0.02.

Turning to C15U G22A A26G, the self-cleavage worked out at 0.79. Take A16C C23U A24G: the self-cleavage amounted to 0. For the variant A16C C23U G33A G40A, the self-cleavage turned out to be 0.03. In the case of C15U G17U C31G it was 0.05; in that of C15U C37U U38G, 0.02; in that of C15U G19C A24C G29U G36A, 0.19. On to C15U G35A G40U, for which the self-cleavage came out at 0.05.

Regarding C15U G27U C37A, the self-cleavage is 0.15.

As to C15U G44A C45A, the self-cleavage turned out to be 0.03. With C15U G19U U32C G33A, the self-cleavage is 0.18.

For the variant C15U C23U G30C A41U, the self-cleavage was found to be 0.23. To C15U U20C U43A G44U belongs 0.

For C15U U34G A41U C42U, the self-cleavage was determined as 0. As for A16C C31G G40U C45G, the self-cleavage came out at 0.01. With C15U G21U C23A C45U, the self-cleavage stood at 0.18. As for C15U G21U G33U, the self-cleavage turned out to be 0.08. For the variant C15U G19A C31U, the self-cleavage is 0.1. As to C15U G33A C45A, the self-cleavage came to 0.31.

Regarding A16C A25C G27C U28A, the self-cleavage was 0.07. With C15U U34A G35C U43A, the self-cleavage worked out at 0.07. Consider C15U G22A G30A A41G U43A, for which the self-cleavage stood at 0.04.

For the variant A16C A25C U32A C42A, the self-cleavage is 0.

For the variant A16C C18U C37G G40C U43A, the self-cleavage was found to be 0.14. A16C C23U U43C: the self-cleavage is 0.02.

Consider A16C A41G C42A, for which the self-cleavage came to 0.12. On to C15U U20G U28A, for which the self-cleavage came to 0.82. Regarding C15U C37U U38A A39G, the self-cleavage is 0.03. With C15U G17A G29A, the self-cleavage turned out to be 0.15. For the variant C15U G29U C37G U38C U43C, the self-cleavage worked out at 0.03. For C15U U38G G44U, the self-cleavage came out at 0.05. C15U G29U A41G: the self-cleavage turned out to be 0.34. On to C15U G29A C31U C42G, for which the self-cleavage stood at 0.01. To C15U G19U A26C G27U U34A belongs 0.38; to A16C A24C U34A G35A U38A, 0. To C15U G27C U32G C42G U43A belongs 0.01.

On to C15U G33A G35A, for which the self-cleavage is 0.07. Turning to C15U G19A A24C G29A, the self-cleavage worked out at 0.13. As to C15U G17A G19C G30A C37G, the self-cleavage was 0.03. To C15U G33A G36U G44C belongs 0.12; to C15U G22A A26G G29A C42A, 0.27; to C15U G22U C23U, 1.35. To C15U G21C C23A A25C belongs 2.65; to C15U G22A U28C G44U, 0.04; to A16C A25C A26G C37U C42G, 0.07.

Regarding C15U G33C C37G U38G, the self-cleavage came to 0.03. Take C15U G30A U32C C42A: the self-cleavage is 0.16. In the case of C15U G30A C31G U34G, the self-cleavage turned out to be 0.01. On to C15U G17C A24C G30U G33A C45A C46A, for which the self-cleavage stood at 0.01. Take C15U G29U C37U G44C C46A: the self-cleavage is 0.02. Take A16C C23A C31U: the self-cleavage worked out at 0.05. In the case of C15U G21C G33U it was 1.23; in that of C15U U20C C23G G44U, 0.24. For the variant C15U G19A C31G U32A, the self-cleavage amounted to 0.02. With C15U G19C G21A C23A A25U, the self-cleavage was 0.21. As to C15U U34A G44C, the self-cleavage turned out to be 0.07. Turning to C15U G30C U43C, the self-cleavage turned out to be 0. Regarding C15U G30C C46U, the self-cleavage was 0.08.

Turning to C15U G27U C42U C46A, the self-cleavage was 0.04. In the case of C15U U20C G33A it was 0.77; in that of C15U G17C A25G, 0.01; in that of A16C A25U G44C, 0.04. As for C15U G21C G29C, the self-cleavage was determined as 0.15. Take A16C A39U C45U: the self-cleavage is 0.08. In the case of C15U G17U G44U it was 0.05; in that of C15U G22U G40U, 0.09.

As to C15U G17A C31A, the self-cleavage worked out at 0.

C15U G29C C37U C42A: the self-cleavage came out at 0.02. On to A16C A26U U34A G36U C46A, for which the self-cleavage came out at 0.03. As for A16C C31U U43G, the self-cleavage turned out to be 0.07.

On to C15U C18U U32A U38A, for which the self-cleavage was 0.15. Consider C15U G17U G19C G30U G35U, for which the self-cleavage is 0.03. As to C15U C23U G29C G36U, the self-cleavage amounted to 0.04. Turning to C15U G19U U20C C42A, the self-cleavage was found to be 0.08. With C15U G17C U34A G36A, the self-cleavage turned out to be 0.03. With C15U C45U C46G, the self-cleavage was determined as 0.01.

Take C15U U32C C37A: the self-cleavage came to 0.04.
